Several values for one entry are separate records, joined by “and”; a condition that tells them apart may be missing. Equal entries are not always repeated. This is one part of the list. Further columns of the screen follow, without active or inactive calls.
Experiments:
Assay in all cases: Primary Screen for Target Class Profiling of Small Molecule Inhibitors of Methyltransferases
[1] = target: Glycine N-methyltransferase (Homo sapiens) (UniProt Q14749); conditions: purified enzyme, MTase-Glo SAH luminescence; measured here: GNMT inhibition; at 40 µM; stronger effect = lower value
Outline: (§1)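 Each enzyme was reacted with SAM and its substrate, with compounds tested once at 40 uM; SAH formed was read by MTase-Glo luminescence.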

[2] = target: Guanidinoacetate N-methyltransferase (Homo sapiens) (UniProt Q14353); conditions: purified enzyme, MTase-Glo SAH luminescence; measured here: GAMT inhibition; at 40 µM; stronger effect = lower value
Outline: as §1

[3] = target: Histamine N-methyltransferase (Homo sapiens) (UniProt P50135); conditions: purified enzyme, MTase-Glo SAH luminescence; measured here: HNMT inhibition; at 40 µM; stronger effect = lower value
Outline: as §1

[4] = target: Nicotinamide N-methyltransferase (Homo sapiens) (UniProt P40261); conditions: purified enzyme, MTase-Glo SAH luminescence; measured here: NNMT inhibition; at 40 µM; stronger effect = lower value
Outline: as §1

[5] = target: Phenylethanolamine N-methyltransferase (Homo sapiens) (UniProt P11086); conditions: purified enzyme, MTase-Glo SAH luminescence; measured here: PNMT inhibition; at 40 µM; stronger effect = lower value
Outline: as §1
On the % scale 0 is the no-effect control and ±100 the full control effect.

Row | SMILES | activity change, negative = inhibition [1] | activity change, negative = inhibition [2] | activity change, negative = inhibition [3] | activity change, negative = inhibition [4] | activity change, negative = inhibition [5]
1 | O=C(c1ccc(F)c(F)c1Nc1ccc(I)cc1F)N1CC(O)([C@@H]2CCCCN2)C1 | 4.99% | 15.8% | 11.9% | -11.4% | 2.9%
2 | CCCn1c(=O)c2ccc(C(=O)NC(C)C)cc2n2c(=O)n(Cc3ccc(F)cc3Cl)nc12 | -2.31% | 0.581% | 5.79% | -2.05% | 4.95%
3 | CCCn1c(=O)c2ccc(C(=O)NC3CCCC3)cc2n2c(=O)n(CC(=O)Nc3ccccc3F)nc12 | 5.27% | 0% | 12% | -0.938% | 5.84%
4 | COc1ccccc1CN1CCC(CN(CC(C)C)C(=O)C2C=CCN2)CC1 (stereo unspecified) | -0.014% | -0.115% | -17.8% | -3.28% | 2.33%
5 | CC1CCc2c(sc3nc(-c4cc5ccccc5oc4=O)nc(Cl)c23)C1 (stereo unspecified) | – | -6.8% | – | -17.4% | -2.9%
6 | COc1cc2nc(N3CCCN(C)CC3)nc(NC3CCN(Cc4ccccc4)CC3)c2cc1OC | 4.82% | 12.1% | -67.6% | -11.4% | -1.7%
7 | COc1cc2nc(-c3cc4c(c(OC)c3)OCCNC4)cc(C)c2cc1OC | -7.6% | -2.55% | -9.95% | -7.1% | -22.6%
8 | CN(Cc1noc(C2CCCC2)n1)c1cc(C2CC(O)C2)ncn1 (stereo unspecified) | 1.05% | 3.32% | 3.31% | -3.75% | 1.34%
9 | COc1ccc(-c2nc3ccccc3[nH]2)cc1 | -73.1% | -60.5% | -71.7% | -66.7% | -76%
10 | COC(=O)c1c(NC(=O)c2ccccc2)c2cc(NC3CCOCC3)cnc2n1CC1CCCO1 (stereo unspecified) | -2.09% | 1.26% | 2.33% | 0.185% | 4.45%
11 | CCCn1c(=O)oc2cc(NS(=O)(=O)c3ccc4c(c3)n(C)c(=O)n4C)ccc21 | -9.09% | 0.838% | 14.1% | -2.56% | 7.47%
12 | CC(=O)N1CCC(N[C@@H]2CO[C@H](CNC(=O)c3ccncc3)[C@H]2O)CC1 | -3.04% | -4.69% | -0.362% | -7.05% | -3.65%
13 | Cc1nc(C)c(C(=O)N2CCC(C(=O)N3CCCCCCNC(=O)CC3)CC2)s1 | -10.6% | -3.4% | -2.48% | -13.6% | -24.9%
14 | CCN1CCN(C(c2ccc(C)cc2)c2sc3nc(-c4ccco4)nn3c2O)CC1 (stereo unspecified) | – | 1.01% | – | -6.87% | 6.73%
15 | CC(=O)O[C@H]1CC[C@@]2(CI)C(=CC[C@@H]3[C@@H]2CC[C@]2(C)[C@@H]([C@H](C)CCCC(C)C)CC[C@@H]32)C1 | 0.057% | -5.05% | 11.9% | -8.96% | 4.25%
16 | Cn1c(=O)n(C)c2cc(S(=O)(=O)N3CCc4ccccc43)ccc21 | -4.22% | -1.26% | -6.45% | -8.15% | -6.26%
17 | COc1ccc(CCC(=O)N2CCCC(n3cc(-c4nc(-c5ccccc5)no4)nn3)C2)cc1 (stereo unspecified) | -8.91% | -7.09% | -4.03% | -15.2% | -9.8%
18 | C[C@@H](c1ccccc1)N(C)C(=O)c1cc(COc2cccc(F)c2)[nH]n1 | -7.3% | 0.459% | -0.962% | -8.14% | -1.94%
19 | COc1ccc(CN2C(=O)c3cc4sccc4n3CC2(C(=O)NC2CCCCCCC2)c2ccccc2)cc1 (stereo unspecified) | 0.39% | 2.07% | -1.23% | -0.738% | -3.43%

Row | SMILES | activity change, negative = inhibition [1] | activity change, negative = inhibition [2] | activity change, negative = inhibition [3] | activity change, negative = inhibition [4] | activity change, negative = inhibition [5]
20 | CC(CN1C(=O)c2cc3sccc3n2CC1(C)C(=O)NC1CCCCCC1)c1ccccc1 (stereo unspecified) | -1.05% | 4.6% | 6.99% | 2.24% | -1.38%
21 | Cn1c(=O)c2c(nc(/C=C/c3cccc(Cl)c3)n2C)n(C)c1=O | -12% | 1.51% | -4.27% | -12.6% | -0.3%
22 | Cc1cc(C(=O)N2CCCCc3ccccc32)ccc1CNC(=O)N1CCC[C@H]1C(=O)N(C)C | 6.45% | -0.622% | 2.66% | -15.4% | -3.61%
23 | COc1cccc(CN2Cc3cc(NC(=O)Cc4cccs4)ccc3OCC2=O)c1OC | -4.82% | -0.42% | -11.8% | -13.5% | 6.33%
24 | Cn1c(=O)c2ccc(C(=O)NC3CCCCC3)cc2n2c(SCC(=O)c3ccc(F)cc3)nnc12 | 1.82% | 0% | 1.29% | 4.91% | 6.1%
25 | CCOc1ccc(CCNS(=O)(=O)c2ccc3[nH]c(=O)[nH]c3c2)cc1OCC | 14.4% | 1.84% | 14.3% | 5.61% | 4.92%
26 | CN(C)CCCc1cc(C(=O)Nc2ccc(-c3ccncc3)cc2)ccc1O | -14.8% | 3.29% | -79.9% | -12.5% | -3.59%
27 | Cc1nn2c(c1-c1ccccc1C(C)C)N([S+](=O)([O-])c1ccc(C(C)C)cc1)CCC2 | -6.08% | -3.67% | -7.78% | -16.3% | 3.28%
28 | CC(=O)OCC(=O)Nc1cc(C#N)cc(NC(=O)COC(C)=O)c1Cl | 6.38% | 6.3% | 7% | -5.49% | 2.39%
29 | CC1(C)CC[C@]2(C(=O)OC3OC(CO)C(O)C(O)C3O)CC[C@]3(C)C(=CCC4[C@@]5(C)CC[C@H](OC6OC(C(=O)O)C(O)C(O)C6O)C(CO)(CO)C5CC[C@]43C)[C@@H]2C1 (stereo partly specified) | 0% | -1.02% | 0.69% | -11.9% | 2.83%
30 | Cn1ncc(Cl)c1-c1cc(C(=O)NC(CN)Cc2ccc(F)c(F)c2)oc1Cl (stereo unspecified) | -1.36% | 4.68% and 1.31% | 4.69% | -23.1% and -21.9% | -3.1% and -8.4%
31 | O=C(CCCc1ccccc1)Nc1ccnn1C1CCN(C(=O)c2ccccc2F)CC1 | -0.109% | 1.89% | 3.21% | -3.22% | -10.6%
32 | COCCCNC(=O)C1(C)Cn2nc(-c3ccccc3)cc2C(=O)N1c1cccc(Cl)c1C (stereo unspecified) | 2.29% | 2.12% | 5.13% | 3.86% | -0.99%
33 | CC(C)N1C(=O)C2(CCN(C(=O)c3ccccc3F)CC2)C1c1ccccc1 (stereo unspecified) | -6.52% | -7.74% | -5.91% | -15.3% | -14.1%
34 | Cc1nn2c(c1-c1ccccc1C(C)C)N(C(=O)c1cccnc1)CCC2 | -6.09% | -6.88% | -4% | -19% | -13.8%
35 | COc1cccc(NC(=O)N2CCn3cccc3C2C)c1 (stereo unspecified) | -6.6% | 4.48% | -6.94% | -16.8% | -4.5%
36 | COc1cccc(N2C(=O)c3cc4occc4n3CC2(C)C(=O)NC2CCCCCC2)c1 (stereo unspecified) | 1.88% | -37.7% | 4.57% | 9.14% | 3.81%
37 | CC1(C(=O)NC2CCCCCC2)Cc2ccccc2C(=O)N1CCN1CCOCC1 (stereo unspecified) | -4.76% | 4.69% | 5.66% | 8.11% | -1.77%
38 | Cc1ccc(CNC(=O)CN2C(=O)C(c3ccccc3)=NC23CCCCC3)cc1 | -5.04% | -3.19% | 1.13% | -6.2% | -2.52%

From PubChem BioAssay AID1745853 (National Center for Advancing Translational Sciences (NCATS), 2022)
